Reference: the RNAGym collection of RNA variant scans (doi:10.7554/elife.90254)
The source gives no read counts; variants with many changes may rest on few reads.

B1: LINE1-mini (parent)
chain: GGCAGAGCUCAACACAGCGUGGCAAAGUGGCUGUGGCUAGACUGCC

Variants of: B1
Test: self-cleavage, relative activity (ratio to wild type); higher = more cleavage; in vitro, sequencing; the parent is a self-cleaving ribozyme

Row | Variant | self-cleavage
1 | G7U G29C C31G | 0.07
2 | C8G A14C A25G | 0.02
3 | C8A C31A G35A C37A A41U U43G | 0.18
4 | C8A C37G G44U | 0.13
5 | C8A C13A G33U G35C A41G | 0.11
6 | C8A A14U A16G | 0.45
7 | C8A C18U C42A | 0.08
8 | C8A A12U C13G G30A | 0.03
9 | C8G A11C G17U A25G G27U G33U | 0.01
10 | C8A C15A C23G | 0.29
11 | C8A G21A C46G | 0.38
12 | G7U G29U C46U | 0.05
13 | C8A U38C C45G | 0.2
14 | C8G C13U G40A | 0.02
15 | C8G C13U G40U | 0.02
16 | C8A C23G U32A | 0.19
17 | G7U G19C A25U G27U G33U C42U | 0.01
18 | C8G C15A G21A A24U A39U C45U | 0.08
19 | C8A C10U A11U | 0.01
20 | C8G C15G U28A U32C A39U G40U G44A | 0.06
21 | C8A A25C U43C | 0.04
22 | C8A G21C G36U C42A | 0.06
23 | C8A C23U C42A | 0.1
24 | C8A U9G G29U C42U | 0.06

Row | Variant | self-cleavage
25 | C8A C37G C42G C46U | 0.02
26 | C8G A14U G44A | 0.06
27 | C8A A11G U20G | 0.02
28 | G7U U9A A14G | 0.05
29 | C8A A12C G30A G40U A41G | 0.02
30 | C8G A39C G40A | 0.06
31 | C8A G19A G27U A41U U43C G44U C45G | 0.01
32 | C8G A14C G21A U28C G30C C37G C46U | 0.02
33 | C8G A12G U28C G29C | 0.01
34 | C8G A24U A25C A39U | 0.01
35 | G7U G30C C46A | 0.06
36 | C8G A14G G33C C42G U43C | 0.03
37 | C8A G17C C18G | 0.2
38 | G7U G30A U38G | 0.01
39 | C8A C23A C37U A39U | 0.04
40 | G7U G35U A39G G40U | 0.06
41 | C8A U20C G33U | 0.06
42 | C8A C13G G44C | 0.09
43 | C8G A12G A16U C18U C46U | 0.01
44 | C8A C31U G33A | 0.08
45 | C8G C13A U28G C31A U34G | 0.01
46 | C8A A11C G17U | 0.01
47 | C8A C15A A16U | 0.11
48 | C8A G33C C45A | 0.04

Row | Variant | self-cleavage
49 | C8A G33C C45U | 0.02
50 | C8G C10A G17U G19C G36C C45U | 0.02
51 | C8A C18U G33A C37U | 0.03
52 | G7U G33A C46A | 0.33
53 | C8A G22A A25G G40U | 0.33
54 | C8A C10A A11U G35C G36C | 0.02
55 | C8A C13U C18G A41C C42U | 0.17
56 | C8G A26C U38C | 0.01
57 | C8A C13U U28A | 0.31
58 | C8A C10A G17C G21A | 0.11
59 | G7U U9A C13G A14U U20C | 0.36
60 | C8A U9C A12G G17C C37A | 0.02
61 | C8A G21C G27C A41U | 0.17
62 | C8A U9G A14C G27U C37G | 0.12
63 | C8G C15A U28G U38G G44A C45A | 0.06
64 | C8G C13U G36U C45A | 0.04
65 | C8G A14G C37U | 0.06
66 | C8A G22C A39G C42G | 0.14
67 | C8A A12C C46G | 0.01
68 | C8A C31A U34C G35U | 0.12
69 | C8A G29A U32C | 0.14
70 | C8A C13A A16U A25U U38C | 0.03
71 | C8A A16U G19C | 0.09
72 | G7U U20A C23A C31G G44C | 0.01

Row | Variant | self-cleavage
73 | C8A G19C G30U | 0.13
74 | C8G C10U G35A | 0.06
75 | C8G A14U G30U U34A | 0.04
76 | C8G A25C C46A | 0.21
77 | C8A A11U A16G G19A | 0.02
78 | C8A G22A A26U | 0.1
79 | C8A C13U A26C G29A | 0.36
80 | C8A G19C C31A | 0.04
81 | G7U U9A U38A | 0.01
82 | C8A G35A C46A | 0.15
83 | C8G A26U G30C A39G U43C | 0.01
84 | G7U G29U G30A G36C C37A | 0.28
85 | C8A C15A G35C A39G G44U | 0.11
86 | G7U G19C G40C | 0.3
87 | C8A A16U G30U | 0.24
88 | C8G A41G C42A | 0.14
89 | C8A C10U C18G | 0.05
90 | C8A U9C C46G | 0.17
91 | C8A G21U C23G | 0.09
92 | C8G A25U A41C | 0.12
93 | C8G C13G C23A U32C | 0.01
94 | C8G A14G A24C | 0.25
95 | C8A A26C U32C U38A A39G | 0.53
96 | C8A A12G A24G G27U U32G G35C | 0.02

Row | Variant | self-cleavage
97 | C8G C13U A14U A39G C45U | 0.24
98 | C8G A12G C23A | 0
99 | C8G C15G A24C U34C A41G | 0.05
100 | C8A A16C C37U C45G | 0.22
101 | C8A A12U C15U C31A C46U | 0.07
102 | C8A C18G G35C | 0.08
103 | C8A A16U U28G G30C A39G | 0.17
104 | C8A C18U G21U G33A | 0.05
105 | C8A A11U C15U C31U U43A | 0.02
106 | C8A A24U C37A | 0.3
107 | C8G A12G G29U | 0.03
108 | C8G C13U G21C G27U U32A G35A | 0.05
109 | C8A A14C C18A G21C C37G U43A | 0.01
110 | C8A C10U A25G | 0.08
111 | C8A C15A C18U G22U A24C | 0.09
112 | C8A A11U U32C | 0.02
113 | G7U G29U C37U | 0.11
114 | C8A G27U G33A C45A | 0.46
115 | C8G C10A G30U G44U | 0.01
116 | C8G C15U A16G G17U U20G G22A G44U | 0.03
117 | C8G A25U U38A C45G | 0
118 | C8A C10G G19C G40A | 0
119 | C8G C10A U32G | 0.04
120 | C8G C13A G17C G35A C37A | 0.01

Row | Variant | self-cleavage
121 | C8A A11U A25U G27U G30U C37G | 0
122 | C8A U34A G36C C42G | 0.09
123 | G7U U28G U34A | 0.04
124 | C8G C13G A25U A39U C46A | 0.1
125 | C8A U20A C46G | 0.04
126 | C8G A12C A41U C42G | 0.04
127 | G7U G27U U32G | 0.08
128 | G7U U9A U20A | 0.07
129 | C8A G21U G22C C46A | 0.62
130 | C8A C13U A41C | 0.06
131 | C8A A11C G17C C18A U20A G40C C42A C45U | 0.01
132 | C8A U9A G19A A39G | 0.41
133 | C8A C18U U34A C46U | 0.17
134 | C8A C13U G19C G21A | 0.29
135 | C8A A26C C37U | 0.11
136 | C8A A11G C31G | 0.01
137 | C8A U9C A12G G36A | 0.06
138 | C8A A11G C23G | 0.02
139 | C8A C15A U20G | 0.13
140 | C8A G19A A26U U32C G40U | 0.02
141 | G7U U9G U32C G33U | 0.04
142 | G7U G22C C37U | 0
143 | G7U G22C C37A | 0.03
144 | C8A C10U A25C C37A | 0.02

Row | Variant | self-cleavage
145 | C8G C10U G44A | 0.03
146 | G7U G27C C45G | 0.07
147 | C8G C15A G17A C18U A26G G44U | 0.01
148 | C8A C13U G30U | 1.09
149 | C8A G27A G40U U43G | 0.55
150 | G7U G19A G36A | 0.22
151 | C8A A11C C18A U32G G33C G44A | 0.01
152 | C8A A12C G19C A39U | 0.01
153 | C8A C15U C18U G19C U20A G22A U28C | 0.25
154 | C8G C10G A12G G27C | 0.01
155 | G7U G22U G36C | 0.15
156 | C8G C13A A25U | 0
157 | C8A A12G U20A A25G C31U U32A G35A | 0.06
158 | C8A C31U A39C G40U C45U | 0.01
159 | C8A G19A C46A | 0.12
160 | C8A A11G U34C G35U C42G | 0.01
161 | C8A C15A G29U | 0.17
162 | C8A A12U G30A | 0.2
163 | C8A C10A A16U C46U | 0.02
164 | C8A A11U G17A A39C U43A | 0.06
165 | C8A C10A C18A G30U G36A C42U U43A | 0.02
166 | C8A G22A C37A A41U C46U | 0.08
167 | C8G A25G A26U | 0.02
